Results as given in PMC4336329 (PLoS ONE, 2015).
Among all 310,000 compounds or so, about 14,000 (4.5%) showed an effect of 50% or more. Effects have a minus sign here. The list shows a part of the results.

These compounds were tested against human ether-à-go-go-related gene (hERG) potassium channel (human, UniProt Q12809) (assay: primary screen, population patch clamp on CHO cells stably expressing hERG).
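Also: peak tail current of the secondary pulse compared with the same well before compound.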

Sequence of human ether-à-go-go-related gene (hERG) potassium channel (Q12809 whole entry, looked up): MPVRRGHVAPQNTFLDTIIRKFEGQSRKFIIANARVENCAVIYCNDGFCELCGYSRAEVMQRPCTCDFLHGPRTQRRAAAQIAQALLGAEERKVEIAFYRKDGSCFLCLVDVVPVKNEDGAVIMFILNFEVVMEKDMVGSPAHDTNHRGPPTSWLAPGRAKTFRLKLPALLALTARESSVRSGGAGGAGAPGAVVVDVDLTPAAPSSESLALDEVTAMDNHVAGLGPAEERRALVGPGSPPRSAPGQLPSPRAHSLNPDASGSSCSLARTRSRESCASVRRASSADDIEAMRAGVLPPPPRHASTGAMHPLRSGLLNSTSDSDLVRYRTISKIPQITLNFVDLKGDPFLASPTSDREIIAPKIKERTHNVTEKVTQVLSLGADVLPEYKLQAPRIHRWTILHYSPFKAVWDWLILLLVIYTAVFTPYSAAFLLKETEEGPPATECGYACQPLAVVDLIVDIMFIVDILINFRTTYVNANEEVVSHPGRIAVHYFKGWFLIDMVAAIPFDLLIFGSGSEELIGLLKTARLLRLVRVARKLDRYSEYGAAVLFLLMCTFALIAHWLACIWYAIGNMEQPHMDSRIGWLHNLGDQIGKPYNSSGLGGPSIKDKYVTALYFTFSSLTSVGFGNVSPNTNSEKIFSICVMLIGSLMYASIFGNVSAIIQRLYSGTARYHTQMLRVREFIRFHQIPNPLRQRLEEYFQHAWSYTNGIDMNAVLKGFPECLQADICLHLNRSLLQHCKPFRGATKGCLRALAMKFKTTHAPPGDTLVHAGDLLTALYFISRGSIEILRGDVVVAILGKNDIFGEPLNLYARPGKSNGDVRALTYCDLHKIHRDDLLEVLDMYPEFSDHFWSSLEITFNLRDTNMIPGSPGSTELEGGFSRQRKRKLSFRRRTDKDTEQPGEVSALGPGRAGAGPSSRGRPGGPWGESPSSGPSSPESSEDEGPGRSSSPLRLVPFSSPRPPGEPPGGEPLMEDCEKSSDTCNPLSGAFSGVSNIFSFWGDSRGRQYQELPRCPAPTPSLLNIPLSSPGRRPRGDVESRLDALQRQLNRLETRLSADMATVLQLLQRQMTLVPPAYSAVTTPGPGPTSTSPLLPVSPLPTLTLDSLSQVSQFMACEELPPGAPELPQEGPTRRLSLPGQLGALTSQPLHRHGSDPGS

SMILES | hERG current change (%, negative = inhibition) at 10uM
Cc1cc(C)c2cc(CN(CCN(C)C)C(=O)Nc3ccccc3Cl)c(=O)[nH]c2c1 | -55.3%
O=C(COC(=O)c1ccc(CN2CCCC2=O)cc1)Nc1ccc(F)cc1 | -18.8%
Cc1ccc(C)c(/C=C2\CCn3c2nc2cc(C(=O)O)ccc2c3=O)c1 | 10.2%
Nc1ccc(Oc2ncccn2)c(Cl)c1 | 10.3%
O=C(Nc1cccc2ccccc12)N1CC=CCC1 | 6.13%
O=C(c1ccccc1)N1CCN(CC#CC2(O)CCCCC2)CC1 | 21%
COc1cc(CNCCO)cc(Cl)c1OCc1ccc(Cl)cc1Cl.Cl | -7.34%
CCOC(=O)/C(C#N)=C(\N)C(C)C(=O)Nc1ccccn1 (centres unmarked) | 5.17%
CCN(Cc1ccncc1)C(=O)c1cc(Br)cc(Br)c1O | 0.759%
O=C(COC(=O)c1ccc(Br)o1)NCC(=O)Nc1ccc(F)cc1 | 0.699%
Cc1nn(CC(=O)Nc2ccc3c(c2)OCO3)c(C)c1[N+](=O)[O-] | -5.55%
CCCN(CCC)CCCNC(=O)c1cn(CC)c2ccc(S(=O)(=O)N(C)C3CCCCC3)cc2c1=O | -74.3%
CCn1c(C)nc2cc(C(N)=O)ccc21 | 19.5%
Cc1cc(Nc2ccccc2)n(C(=O)c2ccc(N)cc2)n1 | -10.9%
CC1CCN(C(=O)C2CCN(S(=O)(=O)c3cnc[nH]3)CC2)CC1 | 6.99%
CCOC(=O)N1CC=C2C(C#N)=C(N)C(C#N)(C#N)[C@H](c3cccs3)[C@H]2C1 | -18.4%
Cc1ccc(S(=O)(=O)N2CCCCC2)cc1C(=O)NCCc1ccccc1 | 11.2%
Cc1ccc(NC(=O)c2ccc(=O)[nH]c2)cc1S(=O)(=O)N1CCCCC1 | -17.9%
CCOC(=O)c1cc2c(ccn2-c2ccc(F)cc2)n1CC(=O)N(CC)CC | -8.91%
Cn1c(=O)n(Cc2ccccc2)c(=O)c2c1nc1n2CCCN1C1CCCCC1 | -6.46%
Cc1cc(N)c(-n2cc3c(=O)n(C)c(=O)n(C)c3c2)cc1C | -1.57%
COc1ccc(-c2cc(C(=O)N/N=C/c3cccnc3)c3cc(C)cc(C)c3n2)cc1 | 15%
OC(c1ccccc1)c1nc2ccccc2s1 (centres unmarked) | -12.3%

SMILES | hERG current change (%, negative = inhibition) at 10uM
C=C(C)c1sc(-c2ccc(Cl)cc2)nc1C | 14%
COc1ccc(OCC(=O)Nc2ccncc2)cc1 | -17.3%
CN(CC(=O)Nc1cccc(Cl)c1)S(=O)(=O)c1ccc2[nH]c(=O)oc2c1 | -3.67%
Cc1cc2nnc(SCC(=O)N3CCCCCC3)n2c(N)n1 | -5.01%
CC(C)CC(=O)N1CCN(Cc2cccc(Cl)c2)CC1 | 7.42%
CCN1CCN(c2ccc(NC(=O)c3ccccc3F)cc2Cl)CC1 | -70.1%
COc1ccc(C(C(O)C(=O)c2c[nH]c3ccccc23)N2CCN(c3ccc(OC)cc3)CC2)cc1 (centres unmarked) | -7.36%
O=C(COc1ccccc1Cl)Nc1ccc(C(=O)c2ccc(C(=O)O)cc2)cc1 | 11.7%
O=S(=O)(c1ccc(OCC(O)CN2CCN(c3ccccc3Cl)CC2)cc1)N1CCOCC1 (centres unmarked) | -34.7%
COC(=O)c1ccc(C)c(NC(=O)Cc2ccc([N+](=O)[O-])cc2)c1 | 0.529%
COc1cccc(C2C(C#N)=C(N)Oc3cc(C)[nH]c(=O)c32)c1OC (centres unmarked) | -10.4%
CN(CC(=O)N1CCN(C2CCCCC2)CC1)S(=O)(=O)c1cccc2nsnc12 | -24%
COc1ccc2nc(NC(=O)c3ccc([N+](=O)[O-])o3)sc2c1 | 14.3%
CCOc1ccccc1N1CCN(C(=O)CSc2ccc3c(c2)OCCO3)CC1 | -21%
COc1cc(C(=O)NCC(=O)Nc2ccc(F)c(F)c2)ccc1OCC(=O)N1CCOCC1 | 13.5%
CCOC(=O)CSc1nc2cccnc2n1-c1ccc(F)cc1 | -1.48%
COc1ccc(C(=O)CSc2ccccc2C(=O)O)cc1 | 22.5%
CCN(CC(=O)Nc1cc(Cl)ccc1C)C(=O)c1ccc(N2CCCC2=O)cc1 | 10.1%
Cn1c(C(=O)N/N=C/c2ccccc2)cc2ccccc21 | 13.8%
Cc1cc(C)n(-c2nc3ccccc3nc2N2CCCC2)n1 | -8.74%
Cc1ccc2c(Cl)c(C(=O)Nc3ccc4c(c3)OCO4)sc2c1 | 2.7%
CCN(CC(=O)NCCCN1CCOCC1)S(=O)(=O)c1ccc(Cl)cc1 | -18.7%
NS(=O)(=O)c1ccc(CCNC(=O)CCS(=O)(=O)c2ccc(Br)cc2)cc1 | 19.2%

SMILES | hERG current change (%, negative = inhibition) at 10uM
CCC(C)(C)n1nnnc1C(c1ccccn1)N1CCCCC1 (centres unmarked) | -4.06%
CN(CCNC(=O)c1ccc(N2CCCC2=O)cc1)CCc1ccccc1 | -43.2%
Cc1cc(Cl)ccc1NC(=S)NCC(C)C | 11.6%
Cc1ccc(CSc2n[nH]c(N)n2)cc1 | 12.5%
CCOC(=O)N1CCN(C(=O)C2CCN(S(=O)(=O)c3ccc(NC(C)=O)cc3)CC2)CC1 | 23.1%
COc1cc(OC)nc(NC(=O)NS(=O)(=O)c2ccccc2Cl)n1 | 21.3%
Nc1ncnc2c1ncn2[C@@H]1O[C@H](COP(=O)(O)O)[C@@H](O)[C@H]1O.O | -1.22%
COC(=O)c1ccc(OC(=O)c2cccs2)cc1 | 22%
NC(=O)C1=C[C@@H](c2ccc(C(F)(F)F)cc2)C[C@@H](OCCCCO)O1 | -9.66%
COc1ccc(C(=O)NCc2cnn(C)c2C)cc1OC1CCN(C(C)C)CC1 | 8.77%
COc1ccc(/C=C2/C(=O)ON=C2c2ccccc2)cc1OC | -1.25%
CC(O)CNc1nc2c(c(=O)n(Cc3cccc(Cl)c3)c(=O)n2C)n1C (centres unmarked) | 2.33%
CS(=O)(=O)Nc1cccc(C2=NN(C(=O)c3ccccc3Cl)C(c3ccccc3O)C2)c1 (centres unmarked) | -6.02%
CCc1ccc(-c2cc(C(F)(F)F)n3nc(C(=O)Nc4c(C)nn(Cc5ccccc5Cl)c4C)cc3n2)s1 | 0.684%
Cc1ccn(C(=O)c2cc3cc(Cl)ccc3oc2=O)n1 | 3.44%
COc1ccccc1-c1cc(C(F)(F)F)nc(N2CCCC2)n1 | 22.6%
COc1ccc(-c2noc(C3CCCN(C(=O)c4c(F)cccc4F)C3)n2)cc1OC (centres unmarked) | 5.33%
COc1ccc2[nH]c(=O)c(CN(Cc3ccco3)Cc3nnnn3Cc3ccccc3)cc2c1 | 3.49%
O=C(NCCc1nccs1)C1CCC(=O)N(Cc2cccc(C(F)(F)F)c2)C1 (centres unmarked) | 9.82%
Cc1ccc2c(c1)nnn2C1CCN(S(=O)(=O)c2ccc(C(=O)N(C)C3CCCCC3)cc2)CC1 | 11.9%
Cc1ccc(NC(=S)NCc2ccc3c(c2)OCO3)c(C)c1 | 3.32%
Cc1cccnc1NC(=O)Nc1cccc(C(F)(F)F)c1 | -7.78%
O=C(CCN1C(=O)c2cccc3cccc(c23)C1=O)NCc1ccco1 | -26.5%

SMILES | hERG current change (%, negative = inhibition) at 10uM
Cc1ccc(-n2nc3c(c2NC(=O)C(C)(C)C)CSC3)c(C)c1 | 9.34%
Cc1ccc(NS(=O)(=O)c2ccc(C)c(C(=O)N3CCN(C)CC3)c2)cc1.Cl | -14.8%
Cc1ccccc1NC(=O)N1CCN(C(=O)c2ccco2)CC1 | 3.42%
Br.N=C(N)SCc1cn2ccccc2n1 | 1.14%
COC(CNC(=O)c1ccc(CS(=O)(=O)c2c(Cl)cccc2Cl)o1)OC | 21.2%
Cc1c(NC(=O)c2ccccc2)cccc1[N+](=O)[O-] | -0.956%
COc1nc(N(C)C)nc(N2CC(=O)N(CCNS(=O)(=O)c3ccc(C)cc3)C2=N)n1 | 9.78%
Cc1ccc(CNC(=O)c2c(-c3ccccc3)noc2C)cc1 | 20.3%
COC(=O)CSc1nnc(CNC(=O)c2ccccc2F)n1-c1ccc(F)cc1 | 11.9%
CCOc1ccc(NC(=O)C2CCN(c3nnnn3-c3ccccc3)CC2)cc1 | -40.7%
Cc1cccc(OCCCC(=O)O)c1C | 6.81%
O=C1CCN(Cc2cccnc2)CCN1[C@H](CO)c1ccccc1 | 16%
O=C(NNC(=O)c1ccc(F)cc1)C(=O)N1CCCCC1 | -3.24%
C=CCOc1nc2c(c(=O)n(C)c(=O)n2C)n1C | -7.37%
Cc1cc(=O)oc2c(CN3CCC(C)CC3)c(O)c(Cl)cc12 | 4.55%
CCOC(=O)CC(NC(=O)c1ccccc1F)c1ccc(C)cc1 (centres unmarked) | -16.7%
OC(CNCCc1ccc(C(F)(F)F)cc1)COc1cccc2ccccc12 (centres unmarked) | -36.5%
O=C(Nc1ccc(OCC(=O)N2CCOCC2)cc1)Nc1cccc2ccccc12 | 10%
O=C(CSc1nncn1-c1ccccc1)Nc1cc(Cl)cc(Cl)c1 | 2.01%
c1ccc(-c2cn(-c3ccccc3)c3ncnc(N4CCCCC4)c23)cc1 | 6.2%
